The structures appear in SMILES notation. Screen size: about 110,000 compounds; about 230 (0.21%) showed an effect of 50% or more. The list shows a part of the results.
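Further: 30 min substrate incubation versus DMSO and 10 µM JCP410 controls.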

Chain of DPAP1 (Q8IIJ9 whole entry, looked up): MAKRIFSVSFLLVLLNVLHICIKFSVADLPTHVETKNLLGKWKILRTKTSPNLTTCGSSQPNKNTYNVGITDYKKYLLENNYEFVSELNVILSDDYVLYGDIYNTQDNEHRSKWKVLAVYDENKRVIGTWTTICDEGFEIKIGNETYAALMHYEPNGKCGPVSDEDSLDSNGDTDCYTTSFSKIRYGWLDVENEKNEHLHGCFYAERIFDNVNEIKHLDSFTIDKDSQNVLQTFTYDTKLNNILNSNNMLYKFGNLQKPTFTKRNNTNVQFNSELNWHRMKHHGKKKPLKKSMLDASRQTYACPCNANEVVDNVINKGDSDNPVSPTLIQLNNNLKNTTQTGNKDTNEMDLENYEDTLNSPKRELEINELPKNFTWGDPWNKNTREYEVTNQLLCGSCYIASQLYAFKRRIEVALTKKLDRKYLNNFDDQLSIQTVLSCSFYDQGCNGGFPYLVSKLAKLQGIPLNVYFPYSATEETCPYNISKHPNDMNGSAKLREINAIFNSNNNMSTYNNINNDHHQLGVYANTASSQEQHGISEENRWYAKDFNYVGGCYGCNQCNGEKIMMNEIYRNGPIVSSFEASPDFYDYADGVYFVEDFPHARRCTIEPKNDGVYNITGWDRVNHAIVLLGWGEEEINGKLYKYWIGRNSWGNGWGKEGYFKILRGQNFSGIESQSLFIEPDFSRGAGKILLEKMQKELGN

The assay concerns the target DPAP1 (Plasmodium falciparum, UniProt Q8IIJ9). Briefly: primary screen, percent inhibition; read by cleavage of a fluorogenic dipeptide substrate; higher = more effect of the substance. Also on record: species or system P. falciparum D10 trophozoite lysates; single well.
Consider `CCOc1cc(/C=C2\SC(=O)N(C)C2=O)c(Br)cc1O`, for which the “% Inhibition @ 10 uM” value was 0.484%.

`COc1ccccc1N(CC(=O)N(C)Cc1ccccc1)S(=O)(=O)c1ccccc1`: the “% Inhibition @ 10 uM” value is reported as -3.78%.

`CC(C)Nc1nc(Cl)nc(NC(C)C)n1`: the “% Inhibition @ 10 uM” value stood at 2.22%.

As to `CC(=O)Nc1ccc(N(C)C(C)(C)C)cc1`, the “% Inhibition @ 10 uM” value is -6.41%.

As to `O=C(COc1ccc(Cl)cc1)NCCCn1ccnc1`, the “% Inhibition @ 10 uM” value was 3.56%.

`CCN1CCN(CC(O)COc2ccc(C)c(C)c2)CC1` (stereo not drawn): the “% Inhibition @ 10 uM” value is -4.16%.

Take `CCOc1ccc2ncc(S(=O)(=O)c3ccc(C(C)(C)C)cc3)c(O)c2c1`: the “% Inhibition @ 10 uM” value is -5.25%.

Regarding `CCn1ncc(C2=NOC(C(=O)Nc3cccnc3Cl)C2)c1C` (stereo not drawn), the “% Inhibition @ 10 uM” value is listed as -1.37%.

For the compound `CC1=C(C(=O)Nc2cccnc2)C(c2ccccn2)n2nnnc2N1` (stereo not drawn), the “% Inhibition @ 10 uM” value was found to be 6.7%.

As for `CCOC(=O)CN1CC1C(=O)OCC` (stereo not drawn), the “% Inhibition @ 10 uM” value is reported as -5.2%.

Turning to `COc1ccc(-c2cc(C(F)(F)F)n3ncc(C(=O)NC(C)c4ccccc4)c3n2)cc1OC` (stereo not drawn), the “% Inhibition @ 10 uM” value was -3.33%.

Regarding `Cc1ccc2nc3c(O)n(CC(=O)N4CCC5(CC4)OCCO5)ncc-3c2c1`, the “% Inhibition @ 10 uM” value is recorded as -2.15%.

With `FC(F)(F)c1ccccc1CN1CCN(c2ccccc2)CC1`, the “% Inhibition @ 10 uM” value was -0.192%.

For the compound `C=CCNC(=O)/C(=C/c1ccc(OC)cc1)NC(=O)c1cccc(Br)c1`, the “% Inhibition @ 10 uM” value is on record as -2.64%.

In the case of `CC(C)c1ccc(OCC(O)CN2CCOCC2)cc1` (stereo not drawn), the “% Inhibition @ 10 uM” value is recorded as -5.71%.

For `O=C1NC(=O)N(c2cccc(Cl)c2)C(=O)/C1=C\Nc1ccccc1C(=O)O`, the “% Inhibition @ 10 uM” value was -2.77%.

As to `Cc1nn(CC(=O)NCCc2cccs2)c(=O)c2nn(-c3ccccc3)c(C)c12`, the “% Inhibition @ 10 uM” value is given as 0.58%.

Take `O=C1NCCCc2nc(N3CCOCC3)sc21`: the “% Inhibition @ 10 uM” value came to 0.392%.

In the case of `CCN1CCCC1CNC(=O)Cn1ncc2c3ccccc3n(C)c2c1=O` (stereo not drawn), the “% Inhibition @ 10 uM” value is -3.67%.

As to `CCO/C(O)=C1\C(C)=NC2=C(C(=O)c3ccccc32)C1c1ccc2c(c1)OCO2` (stereo not drawn), the “% Inhibition @ 10 uM” value is given as 2.3%.

For the compound `Cc1ccc(C#N)c(SC(C)c2ccccc2)n1` (stereo not drawn), the “% Inhibition @ 10 uM” value turned out to be 13.6%.

As for `COC(=O)c1ccc(CSc2ccccc2C)o1`, the “% Inhibition @ 10 uM” value was 5.07%.

For `c1ccc(C2CCC(Nc3ccc4c(c3)OCO4)CC2)cc1` (stereo not drawn), the “% Inhibition @ 10 uM” value was 4.28%.

In the case of `Cc1ccc(-c2cc(C(F)F)nc(NCC3CCCO3)n2)cc1` (stereo not drawn), the “% Inhibition @ 10 uM” value was -1.73%.

For `c1nc(CCNC2CCCCCC2)c[nH]1`, the “% Inhibition @ 10 uM” value is 1.57%.

In the case of `CCc1ccccc1NS(=O)(=O)c1cc(Cl)ccc1Cl`, the “% Inhibition @ 10 uM” value is -1.22%.

In the case of `Cc1oc(C)c2c(=O)cc(-c3ccc4c(c3)OCO4)cc(OC(=O)c3ccccc3)c12`, the “% Inhibition @ 10 uM” value worked out at 6.85%.

In the case of `CCOC(=O)c1c(N2C(=O)c3ccccc3C2=O)sc(C)c1C`, the “% Inhibition @ 10 uM” value turned out to be 1.08%.

For `COc1ccc(-n2nnnc2SCC(=O)Nc2nccs2)cc1`, the “% Inhibition @ 10 uM” value is -1.6%.

For `Cn1c(-c2ccccc2)cc(=O)c2ccccc21`, the “% Inhibition @ 10 uM” value is recorded as -1.96%.

On to `CN(Cc1ccco1)C(=O)c1nn(C)c2c1CSc1ccccc1-2`, for which the “% Inhibition @ 10 uM” value was determined as 1.68%.

As for `Cc1ccccc1S(=O)(=O)Cc1ccc(C(=O)NCc2cccs2)o1`, the “% Inhibition @ 10 uM” value came out at 3.77%.

`C/C(Cl)=C/Cn1c(SCCC(C)C)nc2c1c(=O)[nH]c(=O)n2C`: the “% Inhibition @ 10 uM” value was 8.62%.

Take `CN(Cc1cnn(C)c1)C(=O)C1CCCCC1C(=O)O` (stereo not drawn): the “% Inhibition @ 10 uM” value is reported as -2.76%.

Consider `c1ccc(C2CCC(NCCCn3ccnc3)CC2)cc1` (stereo not drawn), for which the “% Inhibition @ 10 uM” value worked out at 3.48%.

For `O=C(c1ccc([N+](=O)[O-])cc1)N1CCN(c2ccc(F)cc2)CC1`, the “% Inhibition @ 10 uM” value stood at 6.6%.

As for `CC1CCN(c2oc(COc3cccc(Cl)c3)nc2C#N)CC1`, the “% Inhibition @ 10 uM” value is recorded as -8.55%.

Regarding `Cc1ccc(S(=O)(=O)NCCC2CCCN2C)cc1` (stereo not drawn), the “% Inhibition @ 10 uM” value is given as 4.32%.

With `CCn1cc(C(=O)N2CC(C)CC(C)C2)c2cc(OC)c(OC)cc2c1=O` (stereo not drawn), the “% Inhibition @ 10 uM” value amounted to 1.23%.

As for `CCCOc1ccccc1C1NC(=O)NC(C)=C1C(=O)OC(C)C(C)(C)C` (stereo not drawn), the “% Inhibition @ 10 uM” value was 4.35%.

As for `CNC(=O)CCc1cn(Cc2ccccc2C)c2ccccc12`, the “% Inhibition @ 10 uM” value was 0.581%.

Regarding `COc1ccc(-c2csc(N3C(=O)c4ccc(OC)c(OC)c4C3=O)n2)cc1`, the “% Inhibition @ 10 uM” value came out at 15.2%.

As for `CC(C)N1C(=O)c2ccc(N3C(=O)c4ccc(Br)cc4C3=O)cc2C1=O`, the “% Inhibition @ 10 uM” value is 9.02%.

With `COc1ccc2c(c1)OC1(C)CC2C(S(=O)(=O)c2ccc(C(C)(C)C)cc2)C(=O)N1` (stereo not drawn), the “% Inhibition @ 10 uM” value was -0.72%.

For the compound `CCC(C)NC(=O)CSc1cc(C)nc2c(-c3ccccc3OC)c(C)nn12` (stereo not drawn), the “% Inhibition @ 10 uM” value is reported as -1.7%.

As to `Nn1c(CSCCc2ccccc2)nnc1CSCCc1ccccc1`, the “% Inhibition @ 10 uM” value is listed as -2.5%.

For the compound `CCOc1cc2c(cc1OCC)C(c1ccccc1OC)NCC2` (stereo not drawn), the “% Inhibition @ 10 uM” value is 3.29%.

Turning to `Cc1ccccc1C(=O)NCCNC(=O)c1ccccc1C`, the “% Inhibition @ 10 uM” value was found to be 1.93%.

As to `Cc1ccc(C)c(N2CCN(C(=O)c3csc4ccccc34)CC2)c1`, the “% Inhibition @ 10 uM” value was -1.41%.

On to `COc1cc2nc(C)sc2cc1SC`, for which the “% Inhibition @ 10 uM” value is listed as 0.00178%.

As to `Cc1cc(C(F)(F)F)n2ncc(C(=O)N3CCCCCC3)c2n1`, the “% Inhibition @ 10 uM” value amounted to 6.5%.
